# “And” between values parts separate entries of the source, which are not always exact repeats. Identical values can stand only once. Some of the results follow. Further columns of the screen follow, without active or inactive calls. Most of these compounds were active or inconclusive in the main read-out, so they are no random draw. The note in brackets gives the kind of curve behind each potency; many fits are weak.
# Experiment: qHTS Assay for Lipid Storage Modulators (AID 1519)
# Conditions: Drosophila S3 cells, BODIPY lipid droplet/cell ratio, laser cytometry; measured here: lipid (BODIPY) channel AC50; cells loaded with oleic acid
# Summary of the method: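 Cells seeded at 5,000 per well were treated with compounds over a concentration series and loaded with oleic acid (400 uM, as added). Lipid droplet fluorescence (488 nm excitation, 500-530 nm channel) was read by laser-scanning cytometry and normalized to 20 uM Triacsin C.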
# Tags describe the fitted curve by direction and shape.
row,SMILES,AC50
1,C[C@@H](C(=O)O)c1ccc(-c2ccccc2)c(F)c1,"11.2 µM [rising, full curve, poor fit]"
2,CN(C(=O)Cc1ccc(Cl)c(Cl)c1)[C@H](CN1CCCC1)c1cccc(N=C=S)c1,"14.1 µM [rising, partial curve]"
3,COc1cc2c(cc1OC)[C@@H]1C(=O)c3ccc4c(c3OC1CO2)CC(C(C)C)O4 (stereo not given in full),"0.316 µM [falling, full curve]"
4,CN(C)C(=O)Oc1cccc([N+](C)(C)C)c1,"0.631 µM [falling, full curve, poor fit]"
5,Ic1cncc(OC[C@@H]2CCN2)c1,"35.5 µM [rising, partial curve, poor fit]"
6,NC(=O)CN1CCCC1=O,"0.0178 µM [falling, full curve, poor fit]"
7,COc1ccc(NC(=O)N2CCCC3(CCN(C(=O)Oc4ccccc4)CC3)C2)cc1,"1.41 µM [rising, partial curve, poor fit]"
8,C=CCN1C[C@H](C)N([C@H](c2ccc(C(=O)N(CC)CC)cc2)c2cccc(O)c2)C[C@H]1C,"28.2 µM [rising, partial curve, poor fit]"
9,C[C@@H]1O[C@H](C[N+](C)(C)C)CS1,"39.8 µM [rising, single point]"
10,CC(=O)N1CCN(c2ccc(OC[C@@H]3CO[C@@](Cn4ccnc4)(c4ccc(Cl)cc4Cl)O3)cc2)CC1,"15.8 µM [falling, single point]"
11,COC(=O)/C(C)=C\CC12OC(C)(C)C3CC(C=C4C(=O)c5c(OC)c6c(c(CC=C(C)C)c5OC431)OC(C)(CCC=C(C)C)C=C6)C2=O (stereo not given),"10 µM [falling, partial curve]"
12,C=C1CCC(O)C/C1=C\C=C1/CCCC2(C)C1CCC2C(C)CCCC(C)C (stereo not given),"35.5 µM [rising, partial curve]"
13,COc1ccc2c3c([nH]c2c1)C(C)=NCC3,"20 µM [falling, single point] and 17.8 µM [rising, partial curve, poor fit]"
14,Clc1ccc(COC(Cn2ccnc2)c2ccc(Cl)cc2Cl)c(Cl)c1 (stereo not given),"20 µM [falling, single point]"
15,NCCCP(=O)(O)CC1CCCCC1,"35.5 µM [rising, partial curve, poor fit]"
16,CC1CC[C@@]2(OC1)O[C@@H]1[C@@H](O)[C@H]3C4CC[C@H]5C[C@@H](O[C@@H]6O[C@H](CO)[C@H](O[C@@H]7O[C@H](CO)[C@@H](O)[C@H](O[C@@H]8OC[C@@H](O)[C@H](O)[C@H]8O)[C@H]7O[C@@H]7O[C@H](CO)[C@@H](O)[C@H](O[C@@H]8O[C@H](CO)[C@@H](O)[C@H](O)[C@H]8O)[C@H]7O)[C@H](O)[C@H]6O)[C@H](O)C[C@]5(C)C4CC[C@]3(C)[C@H]1[C@@H]2C (stereo not given in full),"39.8 µM [rising, single point]"
17,Cc1c(C(=O)c2ccc3ccccc3c2)c2cccc3c2n1[C@H](CN1CCOCC1)CO3,"3.98 µM [rising, full curve]"
18,CC1=NCCc2c1[nH]c1cc(O)ccc21,"14.1 µM [rising, partial curve]"
19,COc1cc2c(cc1OC)-c1c(OC)c(OC)c(C=O)c3c1[C@H](C2)N(C)CC3,"1.58 µM [rising, full curve, poor fit]"
20,CCCCCCCCCCCCCC(=O)OC1C(C)[C@@]2(O)C(C=C(CO)C[C@]3(O)C(=O)C(C)=C[C@H]23)[C@@H]2C(C)(C)[C@]12OC(C)=O (stereo not given in full),"3.98 µM [rising, full curve]"
21,CN(C)C(=O)Oc1ccc[n+](C)c1,"39.8 µM [rising, single point]"
22,c1cc2cc(c1)C[n+]1ccc(c3ccccc31)NCc1ccc(cc1)CNc1cc[n+](c3ccccc13)C2,"6.31 µM [rising, full curve, poor fit]"
23,COc1cc2c(cc1O)-c1c(O)c(OC)cc3c1[C@H](C2)N(C)CC3,"12.6 µM [rising, partial curve]"
24,NC(=NCCc1ccc(I)cc1)SCCCc1cnc[nH]1,"28.2 µM [rising, partial curve]"
25,CN1Cc2ccccc2[C@@H]2c3cccc4[nH]cc(c34)C[C@H]21,"0.631 µM [rising, full curve, poor fit]"

# Reference: PubChem BioAssay (NCATS)
